Results: the RNAGym collection of RNA variant scans (doi:10.7554/elife.90254)
Read counts are not given, so values of variants with three or more changes are uncertain.

B1: LINE1-mini (parent)
chain: GGCAGAGCUCAACACAGCGUGGCAAAGUGGCUGUGGCUAGACUGCC

Variants of: B1
Assay: self-cleavage, relative activity (ratio to wild type); higher = more cleavage; in vitro, sequencing; the parent is a self-cleaving ribozyme

Row | Variant | self-cleavage
1 | GGCCGAGCUCAACACAGCGUGGCUAAGUGGAUCUGGCUAGACUGCG | 0.02
2 | GGCAGAGCUGAACCGAGCGUGGCAAAGUGGCUGUGGCUAAACUGCC | 0.04
3 | GGCAUAGCCCAACACAGCGUGGCAAACUGGCUGUGGCUAGACUGCC | 0.03
4 | GGCUGAGAUCAACACAGCGUGGCAAAGAGGCUGUGGCUAGACUGCC | 0.33
5 | CGCAAAGCUCAACACAGCGUGGCAAAGUGGGUGUGGCUAGACUGGC | 0.03
6 | GGCAGAGGUCAUCACAGCGUGGAAAAGUGGCUGUGGCUAGAGUGCC | 0.05
7 | GGCAGAGCUCAACACAGCGUGGUAAAGUGGCUGUGGCCAGAUUUCC | 0.01
8 | GGCACAGAUCAACACAGCGUGGCAAAGUGGCUGUGGCUAGACUCCC | 0.1
9 | GGCAGAGCUCAACGCAGCGUGGCAAAGUGGAUGUGGCUAGACUGCA | 0.06
10 | GGCAGGGCUAAUCACAGCGUGGCAAAGUGGCUGUGGCUAGACUGCC | 0.03
11 | GGCAGAGCUCAACACAGCGUGGCAUAUUGGCUCUGGCUAGACUGCC | 0.08
12 | GGCAUAUCUCAACACAGCGUGACAAAGUGGCUGUUGCUAGACUGCC | 0.27
13 | GGCCGAGCUCAACACAGCGUGGCAAAGUGGCUGCGGCUAGAGUGCC | 0.05
14 | GGCAGGGCUCAACACAACCUGGCAAAGUGGCUGUGGCCAGACUGCC | 0.05
15 | GGCAGAGAUCUACACAGCGUGGCAAAGUGGCUGUGGCUAGAGUGCC | 0.01
16 | GGCAGAGCUCAACACAGCGUGGCAAAGGGGAUAUGGCUAGAUUGCC | 0.02
17 | GGCAGACCUCAGCUCAACGUGGCAAAGUGGCUGUGGCUAGACUGCC | 0.04
18 | GGCAGAGCUUAACACAGCCUGGAAAAGUGGCUGUGGCUAGACUGCC | 0.16
19 | GGCUGAGCUCAACACAGCGUCGCAAAGUGGCUGUGGCUUGACUGCC | 0.04

Row | Variant | self-cleavage
20 | GGCAGAGCUCAACACAGCGUGGCAAACAGGCUGAGGCUAGAAUGCC | 0.01
21 | GGCAGAGCUCAACCCAACGUGGCAAAGUGGCUGUGGCUAGACUGUC | 0
22 | GGCAGAGCUCUACACAGCGCGGCAAAGUGGCUGUGGCUAGACUACC | 0.01
23 | GGCAGCGCUCAACACAGCGUGGCAACGUGGCUGUGGCAAGACUGAC | 0.84
24 | GGCAGAGCUCAACACAGCGUGGCUAAGUGGCUGGGGCUAUACAGAC | 0.02
25 | GGCAGGGCUCAACACAGCGUUGCGAAGUGGCUGUGGCUAGACUGAC | 0.04
26 | GGGAUAGCUCAACACAGCGUGGCAAAGUUGCUGUGGCUAGACUGCG | 0.21
27 | AGCACAGCUCAACACAGCGUGGCAAAGUGGCUGUGGCUAGACUGCG | 0.2
28 | GGCAGAGCUCAACACAGCGUGGCGAAGUGGCUCUGCCUAGACGGCC | 0.01
29 | GGCAGAGCUCAACACUGCGUAGCAAAGUCGCUGUGGCUAGACUGAC | 0.86
30 | GGCAGAGCUAAACACAGCGUGGCAAUGUGGCUGUGGCUAGACCGCC | 0.02
31 | GGCAAAGCUCAACACAGCGUGGCAAAGUGACGAUGGCUAGACUGCA | 0.02
32 | GGCAGAGCUCAAUAAAGCUUGGCUAAGUGGCUGUGGCUAGGCUGCC | 0.05
33 | GGCGUAGCUGAACACAGCGUGGCAAAGUGGCUGUGGCUAGACUGCC | 0.05
34 | GGCAGAGCCCAACACAGCGUGGCAAAUUGACUGUGGAUAGACUGAC | 0.01
35 | GCCAGAGCUGAACAGAGCGUGGCAAAGUGGCUGUGGCUAGACUGCC | 0.03
36 | GGCAGAGCUCAACACAGCGUGGUAAAGUUGCUGUGGCUUGACUCCC | 0.09
37 | GGCCGACCUCAAGACAGCGUGGCAAAGUGGCUGUGGCUAGACUGCC | 0.25
38 | GGCAGAGAUCAACACAGCGUGGUAAAGUGGCUGUUGCUAGACUCCC | 0.17

Row | Variant | self-cleavage
39 | GGCACAGCUCAACACAGCGUGGCAAAGUGGGUGCCGCUAGAGUGCC | 0.01
40 | GGCAGGGCUCAACACAGCGUGGCAUAGGGGCUGUGGCUAGACUGCC | 0.05
41 | GGCAGAGGUCAACACAGCGUGGCAAAGUGGCUGUGGUUUGACUACC | 0.01
42 | GGUAGAGCUCAACACAGCCUAGCAAAGUGGCUGUGGCUAGCCUGCC | 0.05
43 | GUCAGAGCUCAACACAACGUGGCAAAGUGGCUGUUGCUAGACUGCC | 0.11
44 | GGCAGAGCGCAACACCGCGUGGCUAAGUGGCUGUGGCUAGACCGCC | 0.02
45 | GGCAGGGCUCAACACAGCGUGGAAAAGUGGCUGUGGCAAGACUGCC | 0.01
46 | GGCAGAGCUCAACACAGCGUUGCAAAGUGGCUGUGGUUAGACUGAC | 0.02
47 | GGCAGAGCUAAACACAGUGUGGCAAAGUGGCUGUCGCCAGACUGCC | 0.02
48 | GGCAGAGCUCAACACAGCGGGGCAAAGAGGCGGUGGCUAGUCUACC | 0.02
49 | GGCGGAGCUCAACACAGCGUGGCAAAAUGGCUGGGGGUAGACUGCC | 0.06
50 | GGCAGUGCUCUACACAGCGUGGCAAAGUGGCUGUGGCUAGGCUCCC | 0.02
51 | GGCAGAGCUCUACACAACGUGGCAAAGUGGCUGUGGCCAGACUGGC | 0.01
52 | GGCAGAUCUCAACACUGCGUGGCUGAGUGGCUGUGGUUAGACUACC | 0.07
53 | GGCAGAGCUCAACAUAGCGUGGCAAAUUGUAUGUGGCAAGACUGCG | 0
54 | GCCAGAGCUCAACACAGCGUGGCAAACUGUCUGUGGCUAGACUUUC | 0.04
55 | GGCAGAGCCCAACACCGAGUGGCGAAGUGGCUCUGGCUAGCCUGCC | 0.02
56 | GGCAGAGCUAAACACAGCAUGGCAAAGUUGCUGCGGCUAGACUGCC | 0.01
